Some of the results follow.
T1: UNK ZnF1-3 (human, UniProt Q9C0B0 31-174)
T1 sequence: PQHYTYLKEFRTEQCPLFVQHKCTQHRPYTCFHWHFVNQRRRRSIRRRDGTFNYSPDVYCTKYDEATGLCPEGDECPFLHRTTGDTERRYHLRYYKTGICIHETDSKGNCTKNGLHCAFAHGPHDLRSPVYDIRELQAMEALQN

B1: chr16:94664741:94664742:+_ENSMUSG00000040785_ENSMUST00000117648|mus_hu|mus_mus_mus_hu_False|8_28 (ssRNA)
RNA: GGGAGUUCUACAGUCCGACGAUCUGGUACUGAUCUUGGUAGCUGAUAUUCAGGAGAAAGGCUGGCCAAGGGUGUAUAUAUGCUGGUGUACUGGGGCAAACCUGGUACCAUGUUAAUGUAUGCUGGCCGCUGGGUGAUGAUAUCCAACAGAGGAUUGAGCAUCA
B2: chr17:38556828:38556829:-_ENSG00000131747_ENST00000423485|hu_mus|FALSE|FALSE (ssRNA)
RNA: GGGAGUUCUACAGUCCGACGAUCAGUCCACGUUCGGAUGGGAAGCUCUGAGAUUUCAAUGGUUGUAGAAUCCAGAAUAGCUACUUCUCCAUUAAUCACAUACUGAUUUGAAGCCAGUUCUUCAAUAGUACCUUUGAAAUUCUUCAACAGAGGAUUGAGCAUCA
B3: chr2:27656205:27656206:+_ENSG00000115216_ENST00000379852|hu_hu|FALSE|FALSE (ssRNA)
RNA: GGGAGUUCUACAGUCCGACGAUCACUGAUGUCAGGCCAGGAGCUGAAGAUGAGGAUUCUACCUUUGGGUCUGAGCCACUGCUAAGUACUGUCUGGGACUCCCCCUCCGACAUGCUGGAAGGAACACUCAGGCCUCCCGACUCCCAACAGAGGAUUGAGCAUCA
B4: chr2:66667028:66667029:+_ENSG00000143995_ENST00000407092|perfect_dup|FALSE|FALSE (ssRNA)
RNA: GGGAGUUCUACAGUCCGACGAUCCUCUGACGAGCAGACGUCCCCGCCCGCCACCCCCGGCUCGCGGGGGGUACAAGUAGCUAAUUCACAUUUCUCAAAAAUCAGUGCUAAGAGAGGGAAGAGGGGGUGUCCAUAAAUGGCAUCCAACAGAGGAUUGAGCAUCA
B5: chr8:104447970:104447971:+_ENSG00000164934_ENST00000297579|hu_hu|hu_hu_hu_mus_False|8_98 (ssRNA)
RNA: GGGAGUUCUACAGUCCGACGAUCAUACACUUCCCUGCUUCGACUUUUGUCCACAGGAAAGAUUCUAAUAGACUUAUCAAAGCUGGCAGACACAAAUUCCUUCCCAGUGGGAGAGUAGUCCACAUCAAGCACUGCAGACACGUGCAACAGAGGAUUGAGCAUCA
B6: chr3:41267201:41267202:+_ENSG00000168036_ENST00000349496|hu_mus|FALSE|FALSE (ssRNA)
RNA: GGGAGUUCUACAGUCCGACGAUCCAAGAAUUUCACGUUUGUUUUGUUGAGCAAAGCAACCAUUUUCUGCAGUCCACCAGCUAGGCGCACUGCCAUUUUAGCUCCUUCCUGAUGGAGCAGGAGAUUAUGCAGUGUCGUGAUGGCCAACAGAGGAUUGAGCAUCA

The binders below were run against T1, UNK ZnF1-3 (assay: nsRBNS (natural sequence RNA bind-n-seq); RBNS binding buffer (assumed for nsRBNS): 25 mM Tris pH 7.5, 150 mM KCl, 3 mM MgCl2, 0.01% Triton X-100, 500 ug/ml BSA, 20 U/ml SUPERase-In, 4 C; UNK is unkempt and MSI1 is Musashi-1; names of the RNAs are library labels; protein concentration not given here; high values mean tight binding).

Binder	binding signal [enrichment R]
B1	0.844
B2	1.07
B3	0.739
B4	1.27
B5	1.17
B6	0.383

Source: article PMC12136788
